From PubChem BioAssay AID624417 (National Center for Advancing Translational Sciences (NCATS), 2012)
Where “and” joins values, the source holds several entries; their conditions need not be identical. Equal values may be shown once. The campaign covered roughly 410,000 compounds. About 6,400 (1.6%) were called active. The inconclusive results got no clear call from the source; some entries with a clear call stand among them for comparison. Calls follow the shape of the dose curve; as a rule, active = well fitted inhibition curve with a large enough effect; inconclusive = small, poorly fitted or top-dose-only effect; inactive = no such curve, though single readings can be large or run the other way. A potency beside an inconclusive call is a rough fit, not a confirmed value.

molecular target: Glucagon-like peptide 1 receptor (Homo sapiens) (UniProt P43220); assay: qHTS of GLP-1 Receptor Inverse Agonists (Inhibition Mode); conditions: HEK293 GLP-1R CRE-luciferase, luminescence, 24 h, GLP-1R form is constitutively active; activity change, negative = inhibition: at 38.3 µM (top of the series) unless noted; also: nearly all actives have a fitted effect of over 55% in size
How it was run: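 HEK293 cells stably co-expressing constitutively active GLP-1R and a cAMP-responsive luciferase reporter were seeded in DMEM with 10% Nu serum, given compounds after 12 h, and incubated 24 h at 37 deg C. Luminescence was then read.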
% is scaled to controls: 0 for no effect and ±100 for the full control effect; potency is read from the fitted curve at half-maximal effect; tags tell the direction and shape of the fitted curve.

UniProt P43220, sequence (P43220 whole entry, looked up): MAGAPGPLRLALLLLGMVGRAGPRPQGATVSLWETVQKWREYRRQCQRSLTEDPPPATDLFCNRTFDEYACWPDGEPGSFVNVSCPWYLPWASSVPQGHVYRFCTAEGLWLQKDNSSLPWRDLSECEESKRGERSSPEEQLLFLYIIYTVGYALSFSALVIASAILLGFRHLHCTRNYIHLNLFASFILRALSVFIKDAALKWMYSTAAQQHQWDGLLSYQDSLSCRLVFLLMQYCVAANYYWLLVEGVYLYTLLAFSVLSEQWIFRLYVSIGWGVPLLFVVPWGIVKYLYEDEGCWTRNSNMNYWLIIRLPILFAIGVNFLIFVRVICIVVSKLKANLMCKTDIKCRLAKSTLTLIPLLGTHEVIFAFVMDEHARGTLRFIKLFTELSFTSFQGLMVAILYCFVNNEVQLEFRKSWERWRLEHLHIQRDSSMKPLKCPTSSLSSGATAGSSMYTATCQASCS

Activity change, negative = inhibition, inactive:
Cc1c(Cl)cccc1NC(=O)CNS(=O)(=O)c1cccs1 -4.94%
CCOC(=O)/C=C/[C@H]1CCc2cccc(C)c2O1 -4.59%
O=C(Nc1ccc(-c2nc3ccccc3o2)c(O)c1)c1cc(-n2cnnc2)ccc1Cl 71.2%
CN1CCc2nc3ccccc3c(C(=O)OCC(=O)N(CCC#N)c3ccccc3)c2C1 -15.6%
COc1ccc(Cn2c(SCc3cc(C)ccc3C)nc3cc(OC)c(OC)cc3c2=N)cc1 4.68%
CCc1cnc2c(c1SCc1ccccc1C)c(=O)n(C)c(=O)n2C 4.65%
COc1ccc(S(=O)(=O)N2CN(Cc3ccco3)c3nc4ccccc4nc32)cc1 0%
O=C1N[C@@H](Cc2c[nH]c3ccccc23)COC(=O)[C@H](Cc2ccc(F)cc2)C/C=C\C[C@@H]1CC(=O)N(CCO)Cc1ccccc1 3.86%
COC(=O)CSCC(=O)Nc1nnc(-c2ccccc2C)s1 3.73%
Cc1cccnc1NC(N)=S 5.52%
Cn1cnc(S(=O)(=O)N2C[C@@H](O)COC[C@@H]3O[C@H](CC(=O)NC4CCC4)CC[C@H]32)c1 5.42%
Cn1c(C(=O)N2CCN(Cc3ccc4c(c3)OCO4)CC2)cc2sccc21 -7.24%
CCOc1ccccc1Oc1coc2cc(O)ccc2c1=O 8.57%
COc1ccccc1-c1noc(-c2ccc(NCc3ccco3)c([N+](=O)[O-])c2)n1 22.1%
CC(=O)Nc1ccc(C2C(=O)c3ccccc3C2=O)cc1 33.4%
CCOc1ccc(C(=O)NC(=S)Nc2cccc(NC(=O)c3ccco3)c2)cc1[N+](=O)[O-] -31.7%

Potency, inconclusive:
COc1cccc(C(=O)NC(=NCCc2c[nH]c3ccc(OC)cc23)Nc2nc(C)cc(C)n2)c1 31.6 µM [inhibitor, single point]
CCOc1cc(CNc2ccccc2)cc(Br)c1OCc1ccc(F)cc1 7.08 µM [inhibitor, partial curve, poor fit]
S=C(NCC1CCCO1)N1CCN(c2nc(-c3ccc(Cl)cc3)cs2)CC1 (configuration not stated) 11.2 µM [inhibitor, partial curve, poor fit]
CN(C)c1ccccc1C(=O)N1CCCC(Nc2ccc(F)cc2)C1 (configuration not stated) 0.708 µM [inhibitor, full curve, poor fit]
CCN1C(C(=O)c2ccccc2)=C(OC(=O)COc2ccc(OC)cc2)c2ccccc2S1(=O)=O 28.2 µM [inhibitor, single point]
COc1cc(OC)c(NS(=O)(=O)c2cc(Br)cnc2N)cc1Cl 10 µM [inhibitor, partial curve, poor fit]
CCOc1ccc(CN(C)CC(=O)Nc2ccccc2C(=O)NC2CC2)cc1 7.94 µM [inhibitor, partial curve]
Clc1ccccc1NN(Cc1ccncc1)c1ccccc1Cl 10 µM [inhibitor, partial curve, poor fit]
CCCCOCCCNC(=O)C[C@@H]1C[C@@]2(C(=O)OC)CC(C)(C)CC=C2N(Cc2ccc3c(c2)OCO3)C1=O 25.1 µM [inhibitor, single point]
CCN(CC)CCn1c2ccc(Cl)cc2c2nc(C)sc21 28.2 µM [inhibitor, single point]
CCc1cccc(CC)c1NC(=O)C(Cc1ccccc1)NS(=O)(=O)c1cccc2nsnc12 (configuration not stated) 7.94 µM [inhibitor, partial curve, poor fit]
COc1ccc(S(=O)(=O)N2CCN(Cc3cccc(OC)c3)CC2)cc1 28.2 µM [inhibitor, single point]
COc1ccc2c(c1)c(CC(=O)Nc1ccc(C(C)=O)cc1)c(C)n2C(=O)c1ccc(Cl)cc1 2.24 µM [inhibitor, full curve, poor fit] and 5.01 µM [inhibitor, partial curve, poor fit]
Cc1ccc(NC(=O)COc2coc(CN3CCc4ccccc43)cc2=O)cc1Cl 2.51 µM [inhibitor, full curve]
O=C(Cn1ncc2c1-c1ccccc1OC2)N1CCN(Cc2ccc3c(c2)OCO3)CC1 3.55 µM [inhibitor, partial curve, poor fit]
O=C(C=Cc1cccc(Cl)c1)c1ccccc1 31.6 µM [inhibitor, single point]
CC1CCN(c2nc3nonc3nc2Nc2ccc(F)cc2)CC1 31.6 µM [inhibitor, partial curve, poor fit]
COc1ccc(Br)cc1C(=O)Nc1cccc(NC(=O)c2ccco2)c1 22.4 µM [inhibitor, single point]
CC(C)c1ccc(S(=O)(=O)N2CCN(C(=O)CN3C(=O)NC(C)(c4ccccc4)C3=O)CC2)cc1 (configuration not stated) 8.91 µM [inhibitor, partial curve, poor fit]
COc1ccc(NC(=O)CCCn2c(=O)c3sccc3n(Cc3ccccc3)c2=O)cc1 10 µM [inhibitor, partial curve, poor fit]
CNC(=O)NC(=O)C(C)OC(=O)c1oc2ccccc2c1CSc1ccc(Cl)cc1 (configuration not stated) 8.91 µM [inhibitor, partial curve, poor fit]
Oc1ccc(/C=N/n2c3ccccc3c3ccccc32)cc1 22.4 µM [inhibitor, single point]
COc1ccc2c(=O)c(Oc3ccc(C(=O)O)cc3)c(C(F)(F)F)oc2c1 7.08 µM [inhibitor, partial curve, poor fit]
COc1ccc(C(=O)NC(=S)N2CCC(C)CC2)cc1Br 28.2 µM [inhibitor, single point]
O=C1NC2(CCc3ccccc3C2)C(=O)N1CCOc1cccc(Cl)c1 (configuration not stated) 11.2 µM [inhibitor, partial curve, poor fit]
Cc1cc(C)c2nc(N(CCCN(C)C)C(=O)c3ccc4c(c3)OCCO4)sc2c1 7.94 µM [inhibitor, partial curve, poor fit]
CCN(C(=O)COC(=O)c1ccc(O)cc1)c1cccc2ccccc12 10 µM [inhibitor, single point]
Cc1c(C)n(CCCN(C)C)c2ncnc(Nc3ccc(F)cc3)c12 12.6 µM [inhibitor, partial curve, poor fit]
O=S(=O)(Nc1ccc2cn[nH]c2c1)c1cc(Br)ccc1Br 12.6 µM [inhibitor, partial curve, poor fit]
CCN1CCN(c2ccc(S(=O)(=O)N3CCCCC3)cc2NC(=O)c2ccc(OC(F)F)cc2)CC1 10 µM [inhibitor, partial curve, poor fit]
CCc1ccc(NC(=O)CN2CCN(c3ccc(OC)cc3)CC2)cc1 8.91 µM [inhibitor, partial curve, poor fit]
CCC1(c2ccc(F)cc2)NC(=O)N(CC(=O)N2CCN(S(=O)(=O)c3ccc(C)cc3)CC2)C1=O (configuration not stated) 14.1 µM [inhibitor, single point]
COc1ccc(/C=N/NC(=O)c2ccn[nH]2)cc1COc1ccc(Cl)cc1Cl 12.6 µM [inhibitor, single point]
O=C(NC(c1ccccc1)c1ccc2ccccc2n1)C1CCN(Cc2cccc(C(F)(F)F)c2)CC1 (configuration not stated) 3.55 µM [inhibitor, partial curve, poor fit]
CCN(CC)c1ccc(C(=O)N/N=C(\C)c2ccc(O)cc2)cc1 4.47 µM [inhibitor, full curve, poor fit]
CC1CC(C)CN(C(=O)C2CCCN(c3ncnc4c3nc3n4CCCCC3)C2)C1 (configuration not stated) 12.6 µM [inhibitor, partial curve, poor fit]
Cc1cccc(C)c1OCC(=O)Nc1ccccc1C(F)(F)F 11.2 µM [inhibitor, partial curve, poor fit]
COc1cc(NC(=S)Nc2ccc(OC(F)F)cc2)cc(OC)c1 11.2 µM [inhibitor, single point]
O=C(Nc1ccon1)Nc1ccc(Cl)cc1Cl 7.94 µM [inhibitor, partial curve, poor fit]
CCCc1cc(-c2n[nH]c(C)c2-c2ccc(C(=O)OCC)o2)c(O)cc1O 28.2 µM [inhibitor, single point]
CCC/C(=C1/c2ccccc2C(=O)N1c1ccccc1)c1cnc(OC)nc1 31.6 µM [inhibitor, partial curve, poor fit]
COc1cc(C2c3cc4c(cc3OC(NCc3ccccc3)C2C)OCO4)cc(OC)c1OC (configuration not stated) 0.501 µM [inhibitor, full curve, poor fit]
CCc1ccc(CN2CCC(Oc3cc(C(=O)NC4CC4)ccc3OC)CC2)cc1 10 µM [inhibitor, partial curve, poor fit]
Cc1[nH]c2ccccc2c1/C=N/NC(=O)c1cc(-c2ccncc2)nc2ccccc12 3.55 µM [inhibitor, full curve, poor fit]

Potency, active:
CCOC(=O)c1cnn(-c2ccc(Cl)cc2)c1C1CCN(C(=O)OC(C)(C)C)CC1 10 µM
c1ccc(N2CCN(c3nc(NCc4ccco4)c4ccccc4n3)CC2)cc1 7.08 µM
